Experimental data from publication PMC4624786.
Results are given in words; binding and its absence hold for the method and conditions named. For part of these data: Binding seen in cells or lysates may run through a third protein. Some binding calls cover weakened binding; strength is not graded here. For part of these data: Where a sequence is shown, tags or fusion partners need not be part of it. One block for each substance: values may come before it.

Chains of the proteins cited; added tags and fusions are not shown. Lines headed by an entry give the natural chain unless they say otherwise; changes in a name come on top. Residues count along the entry.
UniProt P70182: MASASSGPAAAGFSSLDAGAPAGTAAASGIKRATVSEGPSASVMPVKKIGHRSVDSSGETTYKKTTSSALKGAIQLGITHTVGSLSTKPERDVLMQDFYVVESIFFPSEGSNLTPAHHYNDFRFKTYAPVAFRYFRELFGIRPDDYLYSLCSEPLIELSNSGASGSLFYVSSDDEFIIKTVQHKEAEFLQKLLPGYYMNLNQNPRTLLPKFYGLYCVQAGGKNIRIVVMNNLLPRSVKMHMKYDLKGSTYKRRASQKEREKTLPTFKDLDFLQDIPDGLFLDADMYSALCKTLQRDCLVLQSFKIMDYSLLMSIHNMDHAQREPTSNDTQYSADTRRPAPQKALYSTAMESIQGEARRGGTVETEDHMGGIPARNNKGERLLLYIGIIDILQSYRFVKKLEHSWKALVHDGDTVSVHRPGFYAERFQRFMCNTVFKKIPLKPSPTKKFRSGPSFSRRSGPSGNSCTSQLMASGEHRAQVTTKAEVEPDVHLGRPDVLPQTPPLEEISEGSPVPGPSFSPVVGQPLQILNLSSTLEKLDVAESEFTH
UniProt O70161: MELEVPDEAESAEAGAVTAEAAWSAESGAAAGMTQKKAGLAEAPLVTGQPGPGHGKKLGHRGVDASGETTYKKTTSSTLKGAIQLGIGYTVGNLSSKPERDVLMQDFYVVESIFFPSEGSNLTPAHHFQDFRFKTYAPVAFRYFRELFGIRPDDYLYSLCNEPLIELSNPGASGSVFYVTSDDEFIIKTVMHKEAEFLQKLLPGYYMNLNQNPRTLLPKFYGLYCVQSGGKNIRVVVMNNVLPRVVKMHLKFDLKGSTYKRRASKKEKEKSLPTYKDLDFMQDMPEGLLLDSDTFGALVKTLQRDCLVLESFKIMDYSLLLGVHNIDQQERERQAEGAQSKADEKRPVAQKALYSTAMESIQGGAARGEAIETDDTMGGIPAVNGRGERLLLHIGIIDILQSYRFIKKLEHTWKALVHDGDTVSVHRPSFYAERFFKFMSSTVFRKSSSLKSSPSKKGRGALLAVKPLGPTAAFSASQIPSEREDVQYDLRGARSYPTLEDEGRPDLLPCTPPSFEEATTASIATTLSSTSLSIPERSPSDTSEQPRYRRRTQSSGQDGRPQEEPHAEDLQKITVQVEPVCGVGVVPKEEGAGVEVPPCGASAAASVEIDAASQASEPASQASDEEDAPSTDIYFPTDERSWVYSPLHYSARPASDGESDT
UniProt P11881, residues 224-604: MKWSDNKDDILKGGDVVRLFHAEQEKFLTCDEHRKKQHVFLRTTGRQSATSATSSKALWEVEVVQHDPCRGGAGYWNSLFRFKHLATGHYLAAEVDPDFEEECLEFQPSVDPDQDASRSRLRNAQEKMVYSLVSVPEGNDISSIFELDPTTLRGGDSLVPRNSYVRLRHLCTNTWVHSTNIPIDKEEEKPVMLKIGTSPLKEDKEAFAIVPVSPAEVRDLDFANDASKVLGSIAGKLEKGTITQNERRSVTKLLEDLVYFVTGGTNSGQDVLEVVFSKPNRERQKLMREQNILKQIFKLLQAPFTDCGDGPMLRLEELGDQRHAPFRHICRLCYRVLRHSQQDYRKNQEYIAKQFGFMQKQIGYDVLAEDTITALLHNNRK
UniProt Q80SW1: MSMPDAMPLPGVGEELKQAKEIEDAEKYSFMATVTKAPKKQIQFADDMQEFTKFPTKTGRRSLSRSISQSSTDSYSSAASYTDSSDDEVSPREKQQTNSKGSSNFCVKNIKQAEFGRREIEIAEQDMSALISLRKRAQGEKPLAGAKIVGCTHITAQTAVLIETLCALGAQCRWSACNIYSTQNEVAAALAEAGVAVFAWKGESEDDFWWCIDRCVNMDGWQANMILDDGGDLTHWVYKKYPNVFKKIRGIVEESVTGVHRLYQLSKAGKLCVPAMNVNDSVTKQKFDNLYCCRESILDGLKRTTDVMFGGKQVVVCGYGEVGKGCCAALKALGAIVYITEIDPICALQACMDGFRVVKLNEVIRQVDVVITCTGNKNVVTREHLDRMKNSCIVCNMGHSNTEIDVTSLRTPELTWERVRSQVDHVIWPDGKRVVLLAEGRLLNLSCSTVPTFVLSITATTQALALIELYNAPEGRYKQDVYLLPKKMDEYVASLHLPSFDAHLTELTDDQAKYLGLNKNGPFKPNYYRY

Experiments:
[1] = target: T1, myc-tagged phosphatidylinositol phosphate kinase type IIα (rat) (UniProt Q9R0I8); assay: co-IP; COS-7 cells co-transfected with HA-IRBIT and myc-PIPK constructs; lysis buffer 10 mM Hepes pH 7.4, 100 mM NaCl, 2 mM EDTA, 1% Nonidet P-40; precipitated with anti-HA or anti-myc antibody and protein G-Sepharose at 4°C; Western blot
T1 sequence: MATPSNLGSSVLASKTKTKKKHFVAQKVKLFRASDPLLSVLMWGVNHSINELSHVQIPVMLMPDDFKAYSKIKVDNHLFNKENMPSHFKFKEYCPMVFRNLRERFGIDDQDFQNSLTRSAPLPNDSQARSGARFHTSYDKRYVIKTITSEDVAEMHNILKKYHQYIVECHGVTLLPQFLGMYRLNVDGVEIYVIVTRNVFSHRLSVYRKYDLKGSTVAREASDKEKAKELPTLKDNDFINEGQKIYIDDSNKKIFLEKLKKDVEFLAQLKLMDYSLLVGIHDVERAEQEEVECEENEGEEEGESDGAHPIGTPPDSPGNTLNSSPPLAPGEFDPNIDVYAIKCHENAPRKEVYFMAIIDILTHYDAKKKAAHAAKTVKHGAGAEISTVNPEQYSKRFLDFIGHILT

[2] = target: myc-tagged phosphatidylinositol phosphate kinase type Iα (mouse) (UniProt P70182); assay: as above
[3] = target: PIPKIα, endogenous in mouse cerebellum (mouse (endogenous in cerebellum)) (UniProt P70182); assay: co-IP; mouse cerebellum, membrane fraction, buffers with 1 mM MgCl2 and 1 mM EGTA instead of 2 mM EDTA (S1 Fig B)
[4] = target: PIPKIγ, endogenous in mouse cerebellum (mouse (endogenous in cerebellum)) (UniProt O70161); assay: as above
[5] = target: PIPKIα, endogenous in mouse cerebellum (mouse (endogenous in cerebellum)) (UniProt P70182); assay: co-IP; adult mouse cerebellum, membrane fraction solubilised in 1% Nonidet P-40; antibodies specific to each PIPK isoform pre-bound to protein G-Sepharose, 2 hr at 4°C; buffer with 2 mM EDTA; blot for IRBIT
[6] = target: PIPKIγ, endogenous in mouse cerebellum (mouse (endogenous in cerebellum)) (UniProt O70161); assay: as above
[7] = target: PIPKIα, endogenous in mouse cerebellum (mouse (endogenous in cerebellum)) (UniProt P70182); assay: co-IP; adult mouse cerebellum, cytosolic fraction; antibodies specific to each PIPK isoform pre-bound to protein G-Sepharose, 2 hr at 4°C; buffer 10 mM Hepes pH 7.4, 100 mM NaCl, 2 mM EDTA, 0.5% Nonidet P-40; blot for IRBIT
[8] = target: PIPKIα, endogenous in mouse cerebellum (mouse (endogenous in cerebellum)) (UniProt P70182); assay: co-IP; mouse cerebellum, cytosolic fraction, buffers with 1 mM MgCl2 and 1 mM EGTA instead of 2 mM EDTA (S1 Fig B)
[9] = target: IP3 binding domain of IP3R1 (residues 224–604) fused to GST (UniProt P11881); assay: pull-down; COS-7 cell lysates incubated with 10 μg GST fusion protein for 1 hr at 4°C, glutathione-Sepharose 4B, washed with lysis buffer (2 mM EDTA, 1% Nonidet P-40), eluted with 20 mM glutathione; Western blot; only the target purified
[10] = target: T2, N-terminal cytoplasmic domain of NBCe1-B (residues 1–468) fused to maltose-binding protein (UniProt Q9Y6R1); assay: pull-down; COS-7 cell lysates (myc-PIPKIα or myc-PIPKIIα with or without HA-IRBIT) incubated with 5 μg MBP fusion protein for 1 hr at 4°C, amylose resin, washed with lysis buffer, eluted with 100 mM maltose; Western blot; only the target purified
T2 sequence: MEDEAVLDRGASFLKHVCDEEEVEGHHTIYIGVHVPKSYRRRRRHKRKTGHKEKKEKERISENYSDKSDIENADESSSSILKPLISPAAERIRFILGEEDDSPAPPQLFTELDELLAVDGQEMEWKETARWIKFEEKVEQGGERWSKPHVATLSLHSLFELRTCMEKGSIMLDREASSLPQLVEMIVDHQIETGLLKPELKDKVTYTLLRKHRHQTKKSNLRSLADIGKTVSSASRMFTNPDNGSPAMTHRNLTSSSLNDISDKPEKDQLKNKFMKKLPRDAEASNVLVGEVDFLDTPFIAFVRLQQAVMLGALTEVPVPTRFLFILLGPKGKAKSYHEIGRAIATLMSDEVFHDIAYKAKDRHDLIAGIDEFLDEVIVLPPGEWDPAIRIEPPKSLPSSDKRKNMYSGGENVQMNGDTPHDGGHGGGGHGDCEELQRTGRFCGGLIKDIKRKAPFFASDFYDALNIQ

[11] = target: T3, PIPKIIα fused to glutathione S-transferase (rat) (UniProt Q9R0I8); assay: pull-down; recombinant IRBIT protein (1 μg) with GST fusion proteins on glutathione-Sepharose in pull-down buffer (10 mM Hepes pH 7.4, 100 mM NaCl, 1 mM MgCl2, 1 mM EGTA, 1 mM 2-mercaptoethanol, 0.01% Nonidet P-40), with or without PI4P, PI5P, IP3, ATP, ADP, TTP, or with 2 mM EDTA or 0.25-10 mM …; blot with anti-IRBIT; both purified
T3 sequence: T1 sequence

[12] = target: IP3 binding domain of IP3R1 (residues 224–604) fused to GST (UniProt P11881); assay: as above
[13] = target: PIPKIα fused to glutathione S-transferase (mouse) (UniProt P70182); assay: as above

- binding [1]: binds
- binding [2]: binds
Substance: HA-IRBIT-(60–530) (from UniProt Q80SW1 60-530) (domain or fragment)

- binding [1]: binds weakly
- binding [2]: binds weakly
Substance: HA-IRBIT-(78–530) (from UniProt Q80SW1 78-530) (domain or fragment)

- binding [3]: binds
- binding [4]: binds weakly
- binding [5]: binds
- binding [6]: binds weakly
- binding [7]: binds
- binding [8]: binds
Substance: IRBIT, endogenous in mouse cerebellum (from UniProt Q80SW1 1-530)

- binding [9]: no binding
- binding [10]: binds
Substance: myc-tagged phosphatidylinositol phosphate kinase type Iα (from UniProt P70182 1-546) (enzyme)

- binding [11]: binds
- binding [12]: binds
- binding [13]: binds
Substance: recombinant IRBIT protein expressed in Sf9 cells (from UniProt Q80SW1 1-530)
